Source: publication PMC12136788
The list shows a part of the results.

B1: chr15:44665791:44665971:-|CDS|ENSG00000229474|control|control|control (ssRNA)
RNA: GGGAGUUCUACAGUCCGACGAUCGAUCUGUUUGUUCUGGAAUACGUGUAUGUGGGAAGUUGAAUCAUCAGACACUAGCUACAUAGACUAUGUUUACAGGGAUCCAGAGAGUCUGAAGACAUUUCUUAUGCCUUUAUAUAUUGGCAACAGAGGAUUGAGCAUCA
B2: chr2:206755008:206755505:-|CDS|ENSG00000138400|control|control|control (ssRNA)
RNA: GGGAGUUCUACAGUCCGACGAUCCACUCUGGAGGACUGCCUCCGAAGCAGGGUGCCUCUCUGCAGGCUCUAUGGGUACCUGAUAGAGAAAAAUGCUCAUGAGUCUGUCAGAGUCAUCGUGGGAGGGAGAACCUUUGUAAACCUCAACAGAGGAUUGAGCAUCA
B3: ENSG00000152601:stop:overlap|stop_codon|ENSG00000152601|stop_codon|NA|stop_codon (ssRNA)
RNA: GGGAGUUCUACAGUCCGACGAUCACCAGAUACCCAUAAUAUCUGCCGAACAUCUGACUAGCCACAAGUAUGUUACCCAGAUGUAGAAUUUUCAUCACUAAACAAUCAUGCUAAAGAGGAAAGGACAGUGUGCUUGGUUAGAGUCAACAGAGGAUUGAGCAUCA
B4: chr12:123761472:123761573:+|3pUTR|ENSG00000185344|unk|FALSE|unique (ssRNA)
RNA: GGGAGUUCUACAGUCCGACGAUCAAUAAGGCAGUUUGAACGAACAGUCUUCCCACAGUCAGGCCAUUUUUGCUGAUUUGGUUUAGAAUUUUCAGAAAUACUUAGUACACUCCACCUGUUCUUUGAUGGGAAUAUCUAAGAAGGCAACAGAGGAUUGAGCAUCA
B5: chr3:12540195:12540433:-|CDS|ENSG00000225526|control|control|control (ssRNA)
RNA: GGGAGUUCUACAGUCCGACGAUCCACCAUAACUGCUACUCUUACGCACUCACGUUCAUUAACUGCGUUCUGAUGGCAGAAGGUAGACAGCAACUGGACAAGGGUGAAUUUACGGAGAAGUACGUGGUCCCGCGGACAAGGCUGCAACAGAGGAUUGAGCAUCA
B6: chr1:155134173:155134274:+|3pUTR|ENSG00000169242|msi1|FALSE|unique (ssRNA)
RNA: GGGAGUUCUACAGUCCGACGAUCGCCACUUUCAGAGCCCCCAGCCCUGGGAACCACUCCCACCACAGGCAUAAGCUAUCACCUAGCAGCCUCAAAACGGGUCAGUAUUAAGGUUUUCAACCGGAAGGAGGCCAACCAGCCCGACAACAGAGGAUUGAGCAUCA
B7: chr2:166409664:166409935:-|three_prime_utr|ENSG00000136546|control|control|control (ssRNA)
RNA: GGGAGUUCUACAGUCCGACGAUCUGUGGUAACAAGCCAAGCUUUUAAUGUCAUUGUUAUGGUUCUUAUAUGUUUCCAAGCAAUAGCCAUGAUGAUAGACACUGAUGUUCAGAGUCUACAAAUGUCCAUUGCUCUCUACUGGAUCAACAGAGGAUUGAGCAUCA
B8: chr10:123051058:123051159:+|CDS|ENSG00000196177|unk|total|mutant (ssRNA)
RNA: GGGAGUUCUACAGUCCGACGAUCCAAGUGGCUCACGUGGCCACCCAGCUGGAAGCUGCAAGAUUACUAACAUACAAUGCUGCCCGGCUUUCCGAAGCUGGAAAGCCAUUCAUAAAAGAAGCGUCAAUGGCCAAAUACUAUGCACAACAGAGGAUUGAGCAUCA
B9: chrX:119453419:119453520:+|3pUTR|ENSG00000077713|unk|FALSE|unique (ssRNA)
RNA: GGGAGUUCUACAGUCCGACGAUCCAGGUAAUUGAAGUGGCUGAGUGGAUACCACGUUGUGAGGUCAGCCACUGGGUCACUUGUAGUCAAUGCAAAGCUUGCACAAACCAACGUCAGCCUAGUUUCACUCAGUUUGACCUGAGACAACAGAGGAUUGAGCAUCA
B10: chr7:6403584:6403671:+|3pUTR|ENSG00000136238|msi1_unk|total|mutant (ssRNA)
RNA: GGGAGUUCUACAGUCCGACGAUCUUUUCCCGUAACCCGGUGUAAAAAUCAUGUGUUGCAGCUUUACCGUUUUUAAAAUAUUUCCGAUAAUUCUUAAACUAUGAACCUUCUUAACAUCACUGUCUUGCCAGAUUACCGACACUGCAACAGAGGAUUGAGCAUCA
B11: chr1:51919672:51919773:-|3pUTR|ENSG00000169213|unk|total|mutant (ssRNA)
RNA: GGGAGUUCUACAGUCCGACGAUCUAUUCUUUGCCUGCCCCUGGGGUUCUCUGCAGAUGGUCCCAGUAACCGAUACUCAGCACCCGACUAACAUAACAGGUCACUACACGGGUGCAGAAUCACUUUACAAAAGAAGACUCUGUUCAACAGAGGAUUGAGCAUCA
B12: chr4:102797111:102797208:-|3pUTR|ENSG00000109332|msi1_unk|FALSE|overlapping (ssRNA)
RNA: GGGAGUUCUACAGUCCGACGAUCUCUGAGAAGACUUAAGUUCUUCCAGCUUUGGACAAUAACUGCUUUUAGAAACUGUAAAGUAGUUACAAGAGAACAGUUGCCCAAGACUCAGAAUUUUUAAAAAAAAAAAUGGAGCAUGUGCAACAGAGGAUUGAGCAUCA
B13: chr2:190436306:190436418:+|CDS|ENSG00000151690|unk|FALSE|unique (ssRNA)
RNA: GGGAGUUCUACAGUCCGACGAUCCCUUUUGCCUGUGUAUUACAAACAGCUGGGAAUGUCUCCAAGCCAGAGUGGACUACUAGUAGGUAUUCGUUACUUCAUUGAAUUCUGCAGUGCCCCCUUUUGGGGUGUAGUUGCAGACCGCAACAGAGGAUUGAGCAUCA
B14: chr6:132296306:132296407:-|3pUTR|ENSG00000079931|msi1|FALSE|unique (ssRNA)
RNA: GGGAGUUCUACAGUCCGACGAUCAUGGGAAACAUAGAAAUGGUAUGUAUUAAUAACUGAUCAUAGGCUGAGGAGAAAAAAUGUAGCUGGCUGCAAACCCAGUGCUGUGAGGUGACUUAUAUGAGGUUCCAGAUCAAAGACAGGCAACAGAGGAUUGAGCAUCA
B15: chr17:34256851:34257067:+|3pUTR|ENSG00000108691|msi1|FALSE|unique (ssRNA)
RNA: GGGAGUUCUACAGUCCGACGAUCUUAAGUAAUGUUAAUUCUUAUUUAAGUUAUUGAUGUUUUAAGUUUAUCUUUCAUGGUACUAGUGUUUUUUAGAUACAGAGACUUGGGGAAAUUGCUUUUCCUCUUGAACCACAGUUCUACCAACAGAGGAUUGAGCAUCA
B16: ENSG00000198589:be:win_5701|CDS|ENSG00000198589|bound_else_gene|NA|bound_elsewhere_windowed (ssRNA)
RNA: GGGAGUUCUACAGUCCGACGAUCUUUAUCCUGAGCAGGCAGAGAGCAGAAGAUAUUCACAGACAUGCGGAAUUUGAGUCACUGUGUGCCCAGUAUUCUGCAGACAAACGAGAAGAUGAGAAGAUGUGUGAUCAUUUGAUAAGACAACAGAGGAUUGAGCAUCA
B17: ENSG00000162129:stop:overlap|stop_codon|ENSG00000162129|stop_codon|NA|stop_codon (ssRNA)
RNA: GGGAGUUCUACAGUCCGACGAUCAGACUCGCAGACUGGACAUCCGGGCACCACUGCACCCUGAGAAGGUGUGCAACACCAUCUAGCAGCCACCUGCCUGCUCCUAUGUGCCCUCACCAUCCAAUAAAGGCCCCUUGGCUGUGGCAACAGAGGAUUGAGCAUCA
B18: chr3:141442868:141442977:+|CDS|ENSG00000177311|unk|FALSE|unique (ssRNA)
RNA: GGGAGUUCUACAGUCCGACGAUCCCAGCCAUCACUAAUGGGCCAAGGAUCACAAAUGCAUUUUCCAUCAUCGAAACAGAAAAUAGUAAUAACAUGUUUUCCCCGCUGGACUUGAGGGCAAGUUUCAAAAAGGUCUCCGACUCCCAACAGAGGAUUGAGCAUCA
B19: chr12:110381781:110381892:-|CDS|ENSG00000196510|unk|total|mutant (ssRNA)
RNA: GGGAGUUCUACAGUCCGACGAUCAAGGCCAUUCAGCUGAACAGUAACCGUGUUCAAGCUCUGCUACUUAAGGGAGCAGCACUCCGGAACAUGGGCAGAGUCCAAGAAGCAAUAAUCCACUUUCGGGAGGCCAUACGGCUCGCACAACAGAGGAUUGAGCAUCA
B20: chr11:102955251:102955493:-|CDS|ENSG00000137745|control|control|control (ssRNA)
RNA: GGGAGUUCUACAGUCCGACGAUCCCGAGAAAUGCAGUCUUUCUUCGGCUUAGAGGUGACUGGCAAACUUGACGAUAACACCUUAGAUGUCAUGAAAAAGCCAAGAUGCGGGGUUCCUGAUGUGGGUGAAUACAAUGUUUUCCCCAACAGAGGAUUGAGCAUCA
B21: ENSG00000184840:stop:overlap|stop_codon|ENSG00000184840|stop_codon|NA|stop_codon (ssRNA)
RNA: GGGAGUUCUACAGUCCGACGAUCCCAUCGGUGUCUGGCAGAUGCGGCACCUCAAGAGCUUCUUUGAAGCCAAGAAGCUUGUGUAGCUGUCCCAGGCGUCACAACCCAUCCUCCCAGGCUGGGGGAGAAAGGACCUCCUGGAACCAACAGAGGAUUGAGCAUCA
B22: chr7:77639488:77639589:+|3pUTR|ENSG00000127947|msi1|FALSE|bound_elsewhere (ssRNA)
RNA: GGGAGUUCUACAGUCCGACGAUCAGUAUUAUUGCCUUAAUGUCUCUUAACCCUGUUACACGCUGCUUGUAGACAUGUUAAUAUAGUAAUACCUUUAUGAUAUAUUGAGUUUAAGGACUACUCUUUUUCUGUUUUAUCAUGUAUCAACAGAGGAUUGAGCAUCA

target: T1, UNK ZnF1-6 (called full-length) (human, UniProt Q9C0B0 30-357); test: nsRBNS (natural sequence RNA bind-n-seq); RBNS binding buffer (assumed for nsRBNS): 25 mM Tris pH 7.5, 150 mM KCl, 3 mM MgCl2, 0.01% Triton X-100, 500 ug/ml BSA, 20 U/ml SUPERase-In, 4 C; UNK is unkempt and MSI1 is Musashi-1; names of the RNAs are library labels; protein concentration not given here; high values mean tight binding
T1 sequence: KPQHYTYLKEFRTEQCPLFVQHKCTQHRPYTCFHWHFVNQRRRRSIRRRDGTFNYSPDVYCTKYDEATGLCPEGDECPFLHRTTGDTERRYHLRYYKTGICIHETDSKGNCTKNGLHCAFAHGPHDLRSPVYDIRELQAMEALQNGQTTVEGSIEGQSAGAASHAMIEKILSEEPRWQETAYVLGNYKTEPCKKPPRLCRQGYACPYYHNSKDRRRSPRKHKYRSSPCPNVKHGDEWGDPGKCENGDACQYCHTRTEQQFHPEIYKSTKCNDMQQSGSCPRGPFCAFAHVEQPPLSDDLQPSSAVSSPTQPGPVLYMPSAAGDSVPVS

Binder | binding signal
B1 | 0.347 enrichment R
B2 | 0.535 enrichment R
B3 | 0.758 enrichment R
B4 | 1.14 enrichment R
B5 | 0.59 enrichment R
B6 | 0.8 enrichment R
B7 | 0.288 enrichment R
B8 | 0.376 enrichment R
B9 | 0.577 enrichment R
B10 | 0.902 enrichment R
B11 | 0.638 enrichment R
B12 | 0.466 enrichment R
B13 | 0.473 enrichment R
B14 | 0.863 enrichment R
B15 | 1.77 enrichment R
B16 | 0.584 enrichment R
B17 | 0.501 enrichment R
B18 | 0.633 enrichment R
B19 | 0.575 enrichment R
B20 | 0.62 enrichment R
B21 | 0.576 enrichment R
B22 | 0.938 enrichment R
